Consider 4 molecules from US20130039912A1 (Sanofi, published 2013).

For experiment [1], the target named is T1, Slit2-D2 (human).
T1 construct: Used purified (ELISA, SPR) and expressed by transient transfection of pXL4911 in HEK293 cells (FACS); also called human Slit2-D2 protein; D2 domain of human Slit2
T1 chain: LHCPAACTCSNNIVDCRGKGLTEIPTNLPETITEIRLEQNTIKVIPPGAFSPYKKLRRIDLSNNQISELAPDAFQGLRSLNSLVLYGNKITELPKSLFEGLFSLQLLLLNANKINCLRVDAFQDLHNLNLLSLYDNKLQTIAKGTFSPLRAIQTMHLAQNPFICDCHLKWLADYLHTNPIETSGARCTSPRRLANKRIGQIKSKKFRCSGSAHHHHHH
In words: ELISA, Slit2-D2 coated, Robo1-Fc L3 titrated 1 to 0.001 µg/mL. The protocol:
(§1) The human Slit2-D2 protein was bound to Immulon-4 enzyme-linked plates (VWR Scientific Inc. Swedesboro, N.J.). A concentration range (from 1 μg/mL to 0.001 μg/mL) of the Robot-Fc L3 fusion protein was added and then detected by means of the peroxidase-conjugated goat anti-human IgG antibody (Sigma; ref. A0170, dilution to 1:50 000). The visualization was carried out with the TMB-H₂O₂ substrate (Interchim; ref UP664780) and the measurements were carried out with a plate reader at 450 nm.

Experiment [2] addresses T1, Slit2-D2. In words: ELISA, human Slit2-D2 coated on the plate, detection with peroxidase-conjugated anti-human IgG, absorbance at 450 nm. The method, then: as §1, with “(from 20” for “(from 1”, “to 0.02” for “to 0.001”, “the Robo1-Fc L1 and Robo1-Fc L2 variants” for “the Robot-Fc L3 fusion protein”, “000). Visualization” for “000). The visualization”, “nm. […] [0083] c. Evaluation of the interaction of the Robo1-Fc protein with the human variants of the Slit family, namely Slit1 and Slit3” for “nm.”

The target in experiment [3] is T1, Slit2-D2. The experiment can be described thus: ELISA, Slit2-D2 coated, Robo1-Fc Slit2-minus titrated 20 to 0.02 µg/mL. The protocol:
The D2 domain of the human Slit variants was bound to Immulon-4 enzyme-linked plates (VWR Scientific Inc. Swedesboro, N.J.). A concentration range (from 1 μg/mL to 0.001 μg/mL) of the Robo1-Fc L1 fusion protein was added and than detected using the peroxidase-conjugated goat anti-human IgG antibody (Sigma; ref. A0170, dilution to 1:50 000). Visualization was carried out with the TMB-H₂O₂ substrate (Interchim; ref UP664780) and the measurements were carried out with a plate reader at 450 nm. Similarly, the Robo1-Fc Slit2-minus variant, which is mutated at the level of the Slit2-binding site, was evaluated according to a concentration range (from 20 μg/mL to 0.02 μg/mL) by ELISA assay under the same conditions described above.
A general note: In an ELISA, binding on a coated surface is turned into a signal by an enzyme label.

The target in the next experiment is T2, Slit2-D1D2 (human, UniProt O94813 31-479).
T2 construct: In the FACS assay expressed by transient transfection of pXL4912 in HEK293 cells
T2 sequence: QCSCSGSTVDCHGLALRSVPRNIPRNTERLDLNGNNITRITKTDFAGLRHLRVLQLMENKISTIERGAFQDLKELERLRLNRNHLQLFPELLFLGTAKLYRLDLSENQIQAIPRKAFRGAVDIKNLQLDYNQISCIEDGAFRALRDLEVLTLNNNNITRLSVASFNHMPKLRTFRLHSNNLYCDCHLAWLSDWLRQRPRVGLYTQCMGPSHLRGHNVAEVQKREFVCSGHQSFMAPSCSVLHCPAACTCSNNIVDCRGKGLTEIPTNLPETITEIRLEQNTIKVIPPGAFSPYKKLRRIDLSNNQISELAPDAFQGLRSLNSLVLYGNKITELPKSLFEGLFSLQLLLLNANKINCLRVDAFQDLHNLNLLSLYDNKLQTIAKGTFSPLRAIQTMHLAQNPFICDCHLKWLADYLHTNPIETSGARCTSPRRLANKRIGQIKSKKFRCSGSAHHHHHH
In words: FACS on HEK293 cells transiently expressing Slit2-D1D2. The protocol:
(§2) The HEK293 cells described and used as in example 1 were transfected either with a ballast plasmid, having no cDNA that encodes in the mammalian cell, or the pXL4911 plasmid encoding the Slit2-D2 protein, or the pXL4912 plasmid encoding the Slit2-D1D2 protein, or pXL5033 encoding the Slit2-N protein described in example 2, The cells were distributed into 96-well plates 48 hours post-transfection, and the Robo1-Fc protein was added in a concentration range of from 0.01 to 3 mg/L for 30 min at 4° C. The Robo1-Fc protein is either the Robo1-Fc L1 biotherapeutic agent, or the Robo1-Fc Slit2-minus mutant, or the Robo1-Fc heparin-minus mutant. The cells were washed and the anti-human Fc antibody labelled with Alexa 488 (ref: A-11013, Invitrogen) was incubated for 30 min at 4° C. The labelled HEK293 cells are then quantified by FACS (Geomean).

The next experiment concerns the target T3, Slit2-N (human, UniProt O94813 31-1121).
T3 construct: In the FACS assay expressed by transient transfection of pXL5033 in HEK293 cells
T3 sequence: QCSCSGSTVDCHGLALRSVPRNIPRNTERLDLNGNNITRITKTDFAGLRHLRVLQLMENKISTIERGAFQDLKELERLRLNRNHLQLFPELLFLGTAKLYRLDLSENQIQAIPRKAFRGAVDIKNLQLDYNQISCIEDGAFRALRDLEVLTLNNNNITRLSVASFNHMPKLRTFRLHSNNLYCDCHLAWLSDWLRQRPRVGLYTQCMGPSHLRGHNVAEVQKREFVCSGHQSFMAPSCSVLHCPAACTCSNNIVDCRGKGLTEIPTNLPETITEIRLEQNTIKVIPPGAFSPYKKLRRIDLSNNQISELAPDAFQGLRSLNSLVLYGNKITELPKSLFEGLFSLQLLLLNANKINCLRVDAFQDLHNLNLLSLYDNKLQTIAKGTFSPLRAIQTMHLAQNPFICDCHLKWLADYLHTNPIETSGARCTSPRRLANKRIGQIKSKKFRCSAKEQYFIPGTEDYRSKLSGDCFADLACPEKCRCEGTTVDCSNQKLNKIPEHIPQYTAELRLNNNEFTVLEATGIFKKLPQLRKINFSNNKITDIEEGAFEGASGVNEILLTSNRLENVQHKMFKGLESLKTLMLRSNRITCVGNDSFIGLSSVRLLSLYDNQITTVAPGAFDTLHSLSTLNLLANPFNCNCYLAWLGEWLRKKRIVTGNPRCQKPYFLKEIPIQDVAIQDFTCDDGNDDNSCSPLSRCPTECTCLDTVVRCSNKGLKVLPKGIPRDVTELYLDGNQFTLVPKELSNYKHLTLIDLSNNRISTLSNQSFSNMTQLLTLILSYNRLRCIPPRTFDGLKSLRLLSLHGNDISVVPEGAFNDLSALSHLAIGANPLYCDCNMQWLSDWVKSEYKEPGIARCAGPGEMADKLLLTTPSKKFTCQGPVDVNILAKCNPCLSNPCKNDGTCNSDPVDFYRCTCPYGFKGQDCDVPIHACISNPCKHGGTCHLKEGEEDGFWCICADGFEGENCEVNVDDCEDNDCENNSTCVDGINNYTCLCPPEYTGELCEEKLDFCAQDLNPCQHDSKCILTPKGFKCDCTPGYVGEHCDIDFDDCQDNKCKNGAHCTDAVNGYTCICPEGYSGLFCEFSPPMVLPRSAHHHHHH
The experiment can be described thus: FACS on HEK293 cells transiently expressing Slit2-N; KD fitted from the FACS titration on HEK293 cells transiently expressing Slit2-N; weak, 43 nM against 1.2 nM for Robo1-Fc L1. The method, then:
as §2

B1: Robo1-Fc L3 (Fc fusion)
chain: LRQEDFPPRIVEHPSDLIVSKGEPATLNCKAEGRPTPTIEWYKGGERVETDKDDPRSHRMLLPSGSLFFLRIVHGRKSRPDEGVYVCVARNYLGEAVSHNASLEVAILRDDFRQNPSDVMVAVGEPAVMECQPPRGHPEPTISWKKDGSPLDDKDERITIRGGKLMITYTRKSDAGKYVCVGTNMVGERESEVAELTVLERPSFV[here human IgG4 Fc with changes without letters]
notes: also called Robot-Fc L3
Broadly, the EC50 is the concentration that produces a half-maximal response. Read a high EC50 as lower potency in that assay. Turning to B1, in the experiment with Slit2-D2 [1], the EC50 turned out to be 0.17 µg/mL.

B2: Robo1-Fc L2 (Fc fusion)
chain: SRLRQEDFPPRIVEHPSDLIVSKGEPATLNCKAEGRPTPTIEWYKGGERVETDKDDPRSHRMLLPSGSLFFLRIVHGRKSRPDEGVYVCVARNYLGEAVSHNASLEVAILRDDFRQNPSDVMVAVGEPAVMECQPPRGHPEPTISWKKDGSPLDDKDERITIRGGKLMITYTRKSDAGKYVCVGTNMVGERESEVAELTVLGGGGS[here human IgG4 Fc with changes without letters]
Regarding B2, in the experiment with Slit2-D2 [2], the binding result is “binds”.

B3: Robo1-Fc Slit2-minus (Fc fusion)
chain: SRLRQEDFPPRIVEHPSDQIVSKGEPATLNCKAEGRPTPTIEWYKGGERVETDKDDPRSHRMLLPSGSLYFLRIVHGRKSRPDEGVYVCVARNYLGEAVSHNASLEVAILRDDFRQNPSDVMVAVGEPAVMECQPPRGHPEPTISWKKDGSPLDDKDERITIRGGKLMITYTRKSDAGKYVCVGTNMVGERESEVAELTVLERPSFV[here human IgG4 Fc with changes without letters]
notes: also called Robo1-Fc Slit2-minus mutant; Robo1-Fc Slit2-minus variant
In the experiment with Slit2-D2 [3], B3 showed an EC50 of 17.8 µg/mL.

B4: Robo1-Fc heparin-minus (Fc fusion)
chain: SRLRQEDFPPRIVEHPSDLIVSKGEPATLNCKAEGRPTPTIEWYKGGERVETDKDDPRSHRMLLPSGSLFFLRIVHGAASRPDEGVYVCVARNYLGEAVSHNASLEVAILRDDFRQNPSDVMVAVGEPAVMECQPPRGHPEPTISWKKDGSPLDDKDERITIRGGKLMITYTRKSDAGKYVCVGTNMVGERESEVAELTVLERPSFV[here human IgG4 Fc with changes without letters]
notes: also called Robo1-Fc heparin-minus mutant; Robot-Fc heparin-minus
In general, Kd refers to the concentration at which binding is half-saturated. On to B4, for which the values for the Kd with Slit2-D1D2 and with Slit2-N were 41 nM and 43 nM, respectively.
